Results reported in a collection of fitness landscapes (doi:10.1016/j.celrep.2020.107928).
Whole data set: some 81,000 sequences, median “one-hybrid fitness for binding parS DNA” near -0.17, cut for the highest 2% near 0.51. The list shows a part of the results.

B1: Caulobacter ParB omega fusion; a variant is named by its letters at X, in order, B8GW30 (parent)
chain: MESVVVGEPGMSEGRRGLGRGLSALLGEVDAAPAQAPGEQLGGSREAPIEILQRNPDQPRRTFREEDLEDLSNSIREKGVLQPILVRPSPDTAGEYQIVAGERAWRAAQRAGLKTVPIMVRELDDLAVLEIGIIENVQRADLNVLEEALSYKVLMEKFERTQENIAQTIGKSXSHVANXMRLLXLPDEVQSYLVSGELTAXHARAIAAAADPVALAKQIIEGGLSVRETEALARKAPNLSAGKSKGGRPPRVKDTDTQALESDLSSVLGLDVSIDHRGSTGTLTITYATLEQLDDLCNRLTRGI

Variants of: B1
Test: one-hybrid fitness for binding parS DNA (scaled: cognate 1, non-cognate 0); higher = stronger binding
Conditions: with parS DNA site
How it was run: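 The reporter was HIS3, with the binding site 19 bp from the promoter, in E. coli USO used for bacterial one-hybrid selection of Caulobacter ParB libraries with four specificity codons randomised. Growth was on M9 lacking histidine, with 0.1 mM IPTG and 5 mM 3-AT, for 48 hours at 37°C. Illumina sequencing covered plasmids before and after selection; three replicate libraries were pooled and variants with under 10 reads dropped. A fitness score is the log change in variant-to-wild-type read ratio, rescaled to the cognate and non-cognate references.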

Row | Variant | one-hybrid fitness for binding parS DNA
1 | KLLG | ≤ 0.2
2 | IFGG | ≤ 0.2
3 | EPKR | ≤ 0.2
4 | KQKV | ≤ 0.2
5 | HTRS | ≤ 0.2
6 | PVTR | ≤ 0.2
7 | LSCV | ≤ 0.2
8 | KSLI | ≤ 0.2
9 | KVIG | ≤ 0.2
10 | CFVS | ≤ 0.2
11 | VSPN | ≤ 0.2
12 | NNEC | ≤ 0.2
13 | HTER | ≤ 0.2
14 | KLRF | ≤ 0.2
15 | IPSV | ≤ 0.2
16 | MLYP | ≤ 0.2
17 | QYLW | ≤ 0.2
18 | VTYY | ≤ 0.2
19 | WFES | ≤ 0.2
20 | EGPK | ≤ 0.2
21 | CMSC | ≤ 0.2
22 | TSNL | ≤ 0.2
23 | SEAY | ≤ 0.2
24 | LTSL | ≤ 0.2

Row | Variant | one-hybrid fitness for binding parS DNA
25 | PLNL | ≤ 0.2
26 | PSEN | ≤ 0.2
27 | RQYT | 0.847
28 | CACR | ≤ 0.2
29 | RDWS | ≤ 0.2
30 | TRKC | ≤ 0.2
31 | VDCY | ≤ 0.2
32 | HSAS | ≤ 0.2
33 | HAER | ≤ 0.2
34 | KVGT | ≤ 0.2
35 | DATM | ≤ 0.2
36 | GYSD | ≤ 0.2
37 | WLIM | ≤ 0.2
38 | TGHY | ≤ 0.2
39 | YLKI | ≤ 0.2
40 | GALW | ≤ 0.2
41 | EYSA | ≤ 0.2
42 | YFAR | ≤ 0.2
43 | KMHR | ≤ 0.2
44 | PLLL | ≤ 0.2
45 | QEAL | ≤ 0.2
46 | EEAR | ≤ 0.2
47 | GDGA | ≤ 0.2
48 | KQER | ≤ 0.2

Row | Variant | one-hybrid fitness for binding parS DNA
49 | CLRL | ≤ 0.2
50 | PAQR | ≤ 0.2
51 | NPSV | ≤ 0.2
52 | MMKG | ≤ 0.2
53 | LCTD | ≤ 0.2
54 | QSKN | ≤ 0.2
55 | LKDP | ≤ 0.2
56 | DDYL | ≤ 0.2
57 | SQWT | ≤ 0.2
58 | TQCT | ≤ 0.2
59 | QLPL | ≤ 0.2
60 | NMGP | ≤ 0.2
61 | ATVC | ≤ 0.2
62 | EPWI | ≤ 0.2
63 | LYLR | ≤ 0.2
64 | NYTC | ≤ 0.2
65 | QVKM | ≤ 0.2
66 | DHIS | ≤ 0.2
67 | RILT | 0.89
68 | QVNF | ≤ 0.2
69 | NCGW | ≤ 0.2
70 | CVKD | ≤ 0.2
71 | KFGV | ≤ 0.2
72 | IYDF | ≤ 0.2

Row | Variant | one-hybrid fitness for binding parS DNA
73 | QNQE | ≤ 0.2
74 | EPLH | ≤ 0.2
75 | QSMP | ≤ 0.2
76 | PSVL | ≤ 0.2
77 | SVAA | ≤ 0.2
78 | YPSN | ≤ 0.2
79 | HYRV | ≤ 0.2
80 | TEIF | ≤ 0.2
81 | SCPA | ≤ 0.2
82 | INDR | ≤ 0.2
83 | HVNT | ≤ 0.2
84 | KPLG | ≤ 0.2
85 | VRTH | ≤ 0.2
86 | QVSI | ≤ 0.2
87 | SKTV | ≤ 0.2
88 | RINK | ≤ 0.2
89 | PSQV | ≤ 0.2
90 | IDSK | ≤ 0.2
91 | AMHF | ≤ 0.2
92 | PTIS | ≤ 0.2
93 | AGFF | ≤ 0.2
94 | FTWC | ≤ 0.2
95 | REPF | ≤ 0.2
96 | QKED | ≤ 0.2

Row | Variant | one-hybrid fitness for binding parS DNA
97 | SCVF | ≤ 0.2
98 | TVND | ≤ 0.2
99 | LLKW | ≤ 0.2
100 | PVQG | ≤ 0.2
101 | VHCP | ≤ 0.2
102 | PTQK | ≤ 0.2
103 | EHRT | ≤ 0.2
104 | TCRI | ≤ 0.2
105 | ETHM | ≤ 0.2
106 | PFPT | ≤ 0.2
107 | KEVP | ≤ 0.2
108 | TTMV | ≤ 0.2
109 | RMQP | ≤ 0.2
110 | WALA | ≤ 0.2
111 | PLKS | ≤ 0.2
112 | IAYS | ≤ 0.2
113 | DSSL | ≤ 0.2
114 | VCIS | ≤ 0.2
115 | LMCA | ≤ 0.2
116 | SKAI | ≤ 0.2
117 | AVNV | ≤ 0.2
118 | QKKT | ≤ 0.2
119 | LTDV | ≤ 0.2
120 | KQKS | ≤ 0.2

Row | Variant | one-hybrid fitness for binding parS DNA
121 | LKEG | ≤ 0.2
122 | SQHT | ≤ 0.2
123 | AVQV | ≤ 0.2
124 | ERIC | ≤ 0.2
125 | TEHS | ≤ 0.2
126 | TGIV | ≤ 0.2
127 | NTCV | ≤ 0.2
128 | PESR | ≤ 0.2
129 | NASG | ≤ 0.2
130 | AEKL | ≤ 0.2
131 | HNHR | ≤ 0.2
132 | RMFT | 0.882
133 | SMPG | ≤ 0.2
134 | MQST | ≤ 0.2
135 | ANTY | ≤ 0.2
136 | TVAQ | ≤ 0.2
137 | HEVT | ≤ 0.2
138 | CYGA | ≤ 0.2
139 | DAGS | ≤ 0.2
140 | AGEI | ≤ 0.2
141 | RHKG | 0.879
142 | HCLT | ≤ 0.2
143 | GGGM | ≤ 0.2
144 | VRNK | ≤ 0.2

Row | Variant | one-hybrid fitness for binding parS DNA
145 | AHPF | ≤ 0.2
146 | DTSP | ≤ 0.2
147 | TVFV | ≤ 0.2
148 | KKHS | ≤ 0.2
149 | TARK | ≤ 0.2
150 | DTGM | ≤ 0.2
151 | TAMG | ≤ 0.2
152 | PVPE | ≤ 0.2
153 | QWFR | ≤ 0.2
154 | HKLF | ≤ 0.2
155 | EMTS | ≤ 0.2
156 | LVCL | ≤ 0.2
157 | VPGI | ≤ 0.2
158 | VFAC | ≤ 0.2
159 | VLNR | ≤ 0.2
160 | RPQC | ≤ 0.2
161 | VRYG | ≤ 0.2
162 | KRAY | ≤ 0.2
163 | SKAR | ≤ 0.2
164 | EPTC | ≤ 0.2
165 | VLSW | ≤ 0.2
166 | VEWF | ≤ 0.2
167 | LHHT | ≤ 0.2
168 | PYDY | ≤ 0.2

Row | Variant | one-hybrid fitness for binding parS DNA
169 | DNSY | ≤ 0.2
170 | RSWM | 0.285
171 | WCLS | ≤ 0.2
172 | PSTC | ≤ 0.2
173 | VTNR | ≤ 0.2
174 | QVME | ≤ 0.2
175 | LSPY | ≤ 0.2
176 | FPVR | ≤ 0.2
177 | TSMS | ≤ 0.2
178 | KGGW | ≤ 0.2
179 | VYRM | ≤ 0.2
180 | SDDS | ≤ 0.2
181 | PMQG | ≤ 0.2
182 | RQDT | 0.768
183 | AWNN | ≤ 0.2
184 | FILL | ≤ 0.2
185 | INIG | ≤ 0.2
186 | RSHD | ≤ 0.2
187 | WRHM | ≤ 0.2
188 | RKQP | ≤ 0.2
189 | WPMS | ≤ 0.2
190 | KSMG | ≤ 0.2
191 | QGGG | ≤ 0.2
192 | IGHI | ≤ 0.2

Row | Variant | one-hybrid fitness for binding parS DNA
193 | RMQV | ≤ 0.2
194 | SNLM | ≤ 0.2
195 | GMEG | ≤ 0.2
196 | RWLG | 0.685
197 | QTWV | ≤ 0.2
198 | PLGR | ≤ 0.2
199 | EKTR | ≤ 0.2
200 | YYLT | ≤ 0.2
201 | CIAR | ≤ 0.2
202 | SLNQ | ≤ 0.2
203 | GKTR | ≤ 0.2
204 | PGMV | ≤ 0.2
205 | ASQW | ≤ 0.2
206 | DERY | ≤ 0.2
207 | SFEG | ≤ 0.2
208 | YGYV | ≤ 0.2
209 | YNNI | ≤ 0.2
210 | GYTS | ≤ 0.2
211 | DHPG | ≤ 0.2
212 | IQRT | ≤ 0.2
213 | YDTW | ≤ 0.2
214 | VNYS | ≤ 0.2
215 | PQFI | ≤ 0.2
216 | YQGR | ≤ 0.2

Row | Variant | one-hybrid fitness for binding parS DNA
217 | KCVG | ≤ 0.2
218 | KWLG | ≤ 0.2
219 | NGSS | ≤ 0.2
220 | IKVG | ≤ 0.2
221 | DQAE | ≤ 0.2
222 | PVPA | ≤ 0.2
223 | QRQW | ≤ 0.2
224 | VRST | ≤ 0.2
225 | DMPG | ≤ 0.2
226 | HRDH | ≤ 0.2
227 | PHIW | ≤ 0.2
228 | LYRP | ≤ 0.2
229 | QSRF | ≤ 0.2
230 | RRMG | 0.806
231 | RNFY | ≤ 0.2
232 | EGWP | 0.264
233 | FLNG | ≤ 0.2
234 | CLCL | ≤ 0.2
235 | KKRK | ≤ 0.2
236 | QLMS | ≤ 0.2
237 | HNQL | ≤ 0.2
238 | AWAG | ≤ 0.2
239 | CGSL | ≤ 0.2
240 | NSFS | ≤ 0.2

Row | Variant | one-hybrid fitness for binding parS DNA
241 | GCSH | ≤ 0.2
242 | AVVC | ≤ 0.2
243 | TPNT | ≤ 0.2
244 | VVAT | ≤ 0.2
245 | FNAG | ≤ 0.2
246 | QQYC | ≤ 0.2
247 | VWEP | ≤ 0.2
248 | RPCE | ≤ 0.2
249 | QTDC | ≤ 0.2
250 | PYLK | ≤ 0.2
251 | GSQG | ≤ 0.2
252 | PLMR | ≤ 0.2
253 | REET | ≤ 0.2
254 | RVTD | ≤ 0.2
255 | VIEK | ≤ 0.2
256 | YGFS | ≤ 0.2
257 | DGAV | ≤ 0.2
258 | GKLD | ≤ 0.2
259 | TSRL | ≤ 0.2
260 | RACV | ≤ 0.2
261 | WISG | ≤ 0.2
262 | LEQC | ≤ 0.2
263 | DHMV | ≤ 0.2
264 | NQQR | ≤ 0.2

Row | Variant | one-hybrid fitness for binding parS DNA
265 | RDSN | ≤ 0.2
266 | MHLE | ≤ 0.2
267 | EACT | ≤ 0.2
268 | GLHS | ≤ 0.2
269 | QELE | ≤ 0.2
270 | VTHR | ≤ 0.2
271 | CMNE | ≤ 0.2
272 | GMLV | ≤ 0.2
273 | RACQ | ≤ 0.2
274 | HWGV | ≤ 0.2
275 | YMPY | ≤ 0.2
276 | HPPV | ≤ 0.2
277 | RQLF | 0.241
278 | TLFK | ≤ 0.2
279 | YMDV | ≤ 0.2
280 | WLNR | ≤ 0.2
281 | HTKR | ≤ 0.2
282 | NGKV | ≤ 0.2
283 | ATVF | ≤ 0.2
284 | SVGN | ≤ 0.2
285 | TPLR | ≤ 0.2
286 | PQTL | ≤ 0.2
287 | EANT | ≤ 0.2
288 | WCYC | ≤ 0.2

Row | Variant | one-hybrid fitness for binding parS DNA
289 | NTLP | ≤ 0.2
290 | VNER | ≤ 0.2
291 | NVMG | ≤ 0.2
292 | QQCF | ≤ 0.2
293 | AKAI | ≤ 0.2
294 | NSDA | ≤ 0.2
295 | HYGR | ≤ 0.2
296 | QDTM | ≤ 0.2
297 | SGIK | ≤ 0.2
298 | VFGS | ≤ 0.2
299 | RNHL | ≤ 0.2
300 | GITD | ≤ 0.2
301 | FIHR | ≤ 0.2
302 | DDHK | ≤ 0.2
303 | EAPR | ≤ 0.2
304 | CTHC | ≤ 0.2
305 | VSAR | ≤ 0.2
306 | QDGT | ≤ 0.2
